Data taken from PubChem BioAssay AID588342 (National Center for Advancing Translational Sciences (NCATS), 2011).
Out of some 360,000 compounds screened, about 25,000 (6.9%) were called active. This list was built around the results that the source calls inconclusive (neither active nor inactive); the mix of calls is not that of the screen. Calls come from the whole dose curve; as a rule, active = well fitted inhibition curve with a large enough effect; inconclusive = small, poorly fitted or top-dose-only effect; inactive = flat fitted curve, though single readings scatter. Potencies beside an inconclusive call are fits to weak or partial responses and may not hold up.

Target: Luciferin 4-monooxygenase (Photinus pyralis) (UniProt P08659)
UniProt P08659, sequence (P08659 whole entry, looked up): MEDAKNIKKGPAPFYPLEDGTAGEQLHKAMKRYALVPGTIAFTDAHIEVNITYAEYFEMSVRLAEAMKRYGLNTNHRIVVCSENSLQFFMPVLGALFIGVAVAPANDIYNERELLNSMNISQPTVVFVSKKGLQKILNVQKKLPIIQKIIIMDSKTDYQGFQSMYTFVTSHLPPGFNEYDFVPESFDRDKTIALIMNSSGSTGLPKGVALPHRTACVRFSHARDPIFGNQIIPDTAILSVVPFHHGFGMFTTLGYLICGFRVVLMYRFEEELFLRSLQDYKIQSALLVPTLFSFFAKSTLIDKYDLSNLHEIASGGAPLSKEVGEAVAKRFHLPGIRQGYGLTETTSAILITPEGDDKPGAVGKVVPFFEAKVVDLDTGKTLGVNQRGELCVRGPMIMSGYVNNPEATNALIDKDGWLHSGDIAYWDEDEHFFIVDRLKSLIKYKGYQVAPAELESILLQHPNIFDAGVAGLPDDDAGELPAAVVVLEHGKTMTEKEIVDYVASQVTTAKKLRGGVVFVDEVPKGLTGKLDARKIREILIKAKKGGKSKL
Assay: qHTS profiling assay for firefly luciferase inhibitor/activator using purifed enzyme and Km concentrations of substrates (counterscreen for miR-21 project); note: nearly all actives have a fitted effect of over 55% in size
Settings: purified FLuc, luminescence inhibition; series mostly up to 57.5 µM
How it was run: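 Purified P. pyralis luciferase (10nM final) with 10uM D-luciferin and 10uM ATP (Km levels) in 50mM Tris acetate pH 7.5, 10mM Mg acetate, 0.01% Tween-20, 0.05% BSA; qHTS 6-point titration, ~60 µM downward; luminescence read.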
Potency is the fitted concentration of half-maximal effect; tags give direction and shape of the fitted curve.

| SMILES | Potency |
| --- | --- |
| COc1ccc(-n2nnnc2/C=C\Nc2ccc(C)cc2)cc1 | inconclusive: 26.9 µM [inhibitor, partial curve, poor fit] |
| Cc1cc(OC(C)C(=O)N(Cc2ccc(N(C)C)cc2)Cc2ccco2)ccc1Cl (stereo unspecified) | inconclusive: 26.9 µM [inhibitor, partial curve, poor fit] |
| CC1CCCN(CCCNC(=O)c2ccc3c(c2)N(Cc2ccc(Cl)cc2)C(=O)c2ccccc2S3(=O)=O)C1 (stereo unspecified) | inactive |
| O=C1NC(c2ccc(Br)cc2)Nc2sc3c(c21)CCC3 (stereo unspecified) | inconclusive: 2.69 µM [inhibitor, full curve] |
| CC(=O)c1ccc(NC(=O)CSCC(=O)Nc2ccc3ccccc3c2)cc1 | inconclusive: 23.9 µM [inhibitor, partial curve, poor fit] |
| Cc1cc2nc(-c3ccc(NC(=O)c4ccccc4F)cc3)oc2cc1C | inactive |
| COc1ccccc1-c1noc(-c2ccc(NC3CCCC3)c([N+](=O)[O-])c2)n1 | inconclusive: 16.9 µM [inhibitor, partial curve, poor fit] |
| COc1ccc(/C=C2\SC(=S)NC2=O)cc1OS(=O)(=O)c1ccc(NC(C)=O)cc1 | active: 26.9 µM |
| CCOC(=O)c1c(N)sn(-c2ccccc2C)c1=S | inconclusive: 30.1 µM [inhibitor, partial curve, poor fit] |
| Clc1ccc(COn2c(-c3ccc(Cl)cc3)nc3ccccc32)cc1 | inconclusive: 37.9 µM [inhibitor, partial curve, poor fit] |
| O=c1[nH]c2ccccc2c(O)c1-c1cc2ccccc2oc1=O | inactive |
| C=CCC(O)(CC=C)CNC(=O)C1CCC(=O)N(CCCc2ccccc2)C1 (stereo unspecified) | inactive |
| COc1ccc(C)cc1NC(=O)c1cccc(C(=O)Nc2cc(C)ccc2OC)n1 | inactive |
| CCn1ncc(-c2csc(N)n2)c1C | inconclusive: 15.1 µM [inhibitor, partial curve] |
| COc1ccc(-n2nc(C(=O)NCC(=O)NC3CCCCCC3)c3ccccc3c2=O)c(OC)c1 | inconclusive: 9.53 µM [inhibitor, partial curve] |
| C/C(=N\NC(=O)c1csc(C)c1C)c1ccc(Cl)s1 | inconclusive: 7.57 µM [inhibitor, partial curve, poor fit] |
| CC(=O)Nc1ccc(S(=O)(=O)Nc2ccc(-n3cnnn3)cc2)cc1 | inactive |
| COc1cccc(CN2CC(C(=O)N3CCCCCC3)CCC2=O)c1 (stereo unspecified) | inactive |
| CCOC(=O)/C=C(\C)Sc1cc(O)c2ccccc2c1O | active: 9.53 µM |
| Clc1ccc(-c2nnc3sc(Cc4cccs4)nn23)cc1 | inconclusive: 23.9 µM [inhibitor, partial curve, poor fit] |
| CCCCOc1ccc(OCCNC(=O)c2ccco2)cc1 | inconclusive: 37.9 µM [inhibitor, partial curve, poor fit] |
| CC1CCN(C(=O)c2cc3ccccc3c(=O)o2)CC1 | inconclusive: 30.1 µM [inhibitor, partial curve, poor fit] |
| CC(C)N(CCCNC(=O)Cn1ncc2c([nH]c3ccccc32)c1=O)Cc1ccccc1 | inactive |
| Clc1ccc(/C=N/Nc2nnc(Cl)c3ccccc23)cc1 | inconclusive: 21.3 µM [inhibitor, single point] |

| SMILES | Potency |
| --- | --- |
| COc1cc2ccccc2cc1C(=O)Nc1nccs1 | active: 8.49 µM |
| Cc1cc(C)c2c(=O)cc(C(=O)Nc3sc4c(c3C(=O)NCC3CCCO3)CCCC4)oc2c1 (stereo unspecified) | inactive |
| Cc1ccc(Nc2nnc(-c3ccc(C)c(S(=O)(=O)N4CCOCC4)c3)c3ccccc23)cc1 | inconclusive: 6.01 µM [inhibitor, partial curve] |
| O=C(NCc1ccco1)c1ccc(N2CCCCC2)c([N+](=O)[O-])c1 | inconclusive: 8.49 µM [inhibitor, single point] |
| Cn1c(CN2CCCC2)nc2cc(NC(=O)c3cccs3)ccc21 | inconclusive: 26.9 µM [inhibitor, single point] |
| O=C(NCCCc1ccccc1)c1ccccc1 | inconclusive: 21.3 µM [inhibitor, single point] |
| Cc1ccc2c(c1)N(C(C)C(=O)NCc1ccc3c(c1)OCO3)C(=O)CO2 (stereo unspecified) | inactive |
| O=C(CSc1nnc(SCc2ccccc2)s1)N/N=C/c1ccc(Cl)cc1Cl | inactive |
| COc1ccc2c(C)cc(Sc3nnnn3-c3ccccc3)nc2c1 | inactive |
| CCOc1ccc(C(=O)/C=C/c2cn(CN3CCN(C)CC3)c3ccccc23)cc1 | active: 16.9 µM |
| COC(=O)CC1C(=O)NCCN1C(=S)NC(=O)c1sc2ccccc2c1Cl (stereo unspecified) | inconclusive: 37.9 µM [inhibitor, partial curve, poor fit] |
| Cn1c(N)c(C(=O)/C=C/c2ccccc2)c(=O)[nH]c1=O | active: 16.9 µM |
| CC1CCN(c2nn3c(=O)c(C(=O)NC(C)C)cnc3s2)CC1 | inactive |
| CC(C)c1ccccc1NC(=O)c1cccc(NC(=O)c2ccccc2)c1 | inconclusive: 37.9 µM [inhibitor, partial curve, poor fit] |
| COc1ccc2oc(=N)c(C(=O)NCc3ccccc3)cc2c1 | inconclusive: 16.9 µM [inhibitor, partial curve] |
| N#Cc1nc(-c2ccc(COc3ccc(Cl)cc3)o2)oc1N1CCC(C(N)=O)CC1 | inactive |
| Cc1ccc(C)c(NC(=O)C2CCCN(c3ncnc4onc(C)c34)C2)c1 (stereo unspecified) | inactive |
| COc1cccc(CNC(=O)c2cccc(-n3c(C)nc4cccnc43)c2)c1OC | inactive |
| COc1ccc(Nc2oc(COc3ccccc3F)nc2C#N)cc1 | inconclusive: 23.9 µM [inhibitor, single point] |
| CCN(CC(=O)NC1CCS(=O)(=O)C1)C(C)C(=O)Nc1ccc(F)cc1 (stereo unspecified) | inactive |
| CCOC(=O)C1(CC2CCCCO2)CCN(Cc2cc(F)ccc2-n2cccn2)CC1 (stereo unspecified) | inconclusive: 23.9 µM [inhibitor, single point] |
| COc1cccc(CC(=O)Nc2ccc(-c3csc(C)n3)cc2)c1 | active: 16.9 µM |
| CCOc1ccc(-n2c(SCC(N)=O)nc3c(oc4ccccc43)c2=O)cc1 | inactive |
| Cc1cccc(NC(=O)c2sc3nc4c(c(-c5ccco5)c3c2N)CCC4)c1 | inconclusive: 37.9 µM [inhibitor, partial curve, poor fit] |

| SMILES | Potency |
| --- | --- |
| COCCSc1nnc(NS(=O)(=O)c2ccc(C)cc2)s1 | inconclusive: 16.9 µM [inhibitor, partial curve, poor fit] |
| COC(=O)C1(Cc2cc(-c3ccccc3)no2)CCN(C(=O)OC(C)(C)C)CC1 | inconclusive: 23.9 µM [inhibitor, partial curve] |
| COCC(=O)N/N=C\c1ccc(OC/C=C/c2ccccc2)c(OC)c1 | inconclusive: 37.9 µM [inhibitor, single point] |
| COc1ccc(-c2nc(C)sc2C)cc1 | inconclusive: 37.9 µM [inhibitor, partial curve, poor fit] |
| O=C(Nc1ccccc1F)C(=O)c1cn(CC(=O)N2CCCCC2)c2ccccc12 | active: 5.36 µM |
| O=C(O)c1cc2nc(-c3ccccc3)cc(-c3ccccc3)n2n1 | inactive |
| O=C(CCCSc1ccc(Cl)cc1)Nc1cc(S(=O)(=O)N2CCOCC2)ccc1O | inconclusive: 37.9 µM [inhibitor, partial curve, poor fit] |
| COC(=O)C(Cc1ccc(O)cc1)NC(=O)c1ccccc1OC (stereo unspecified) | inconclusive: 30.1 µM [inhibitor, partial curve, poor fit] |
| CCN1C/C(=C/c2sccc2C)c2nc3ccccc3c(C(=O)O)c2C1 | inconclusive: 26.9 µM [inhibitor, partial curve, poor fit] |
| CC1(C)CC(=O)C2=C(C1)NC1=C(C(=O)c3ccccc31)C2c1ccc(Cl)cc1 (stereo unspecified) | inconclusive: 21.3 µM [inhibitor, partial curve, poor fit] |
| Cc1ccc2nc(-c3cc(NC(=O)COc4ccc(C)c(C)c4)ccc3Cl)oc2c1 | inconclusive: 3.38 µM [inhibitor, full curve] |
| Cc1nc(N2CCCCC2)sc1C(=O)c1cccc([N+](=O)[O-])c1 | inconclusive: 37.9 µM [inhibitor, single point] |
| Cc1ccccc1C1=N/C(=C/c2cccs2)C(=O)O1 | active: 3.38 µM |
| Cn1c(NCc2ccco2)nc2ccccc21 | inconclusive: 37.9 µM [inhibitor, partial curve, poor fit] |
| Cc1cccc(C)c1NC(=O)CNC(=O)c1cn(-c2ccccc2)nc1-c1ccccc1 | inconclusive: 23.9 µM [inhibitor, partial curve] |
| O=c1c2ccccc2nc(/C=C/c2ccc3c(c2)OCO3)n1CCCO | inconclusive: 26.9 µM [inhibitor, partial curve] |
| O=C(NNc1ccccc1Br)C(=O)n1ccc2ccccc21 | inconclusive: 23.9 µM [inhibitor, single point] |
| CCNC(=S)NNC(=O)c1cc(CC(C)C)nc2ccccc12 | inconclusive: 21.3 µM [inhibitor, single point] |
| CCOc1ccc(S(=O)(=O)N(C)c2ccc(OCC(=O)Nc3nccs3)cc2)cc1 | inactive |
| CCc1nnc(SCC(=O)Nc2ccc(N3CCOCC3)cc2)n1C | active: 21.3 µM |
| Cc1cc(Cl)ccc1OCC(=O)N1CCC(c2nc3ccccc3s2)CC1 | inconclusive: 15.1 µM [inhibitor, partial curve, poor fit] |
| COCCCN=Cc1c(C)[nH]n(-c2ccc(Br)c(C)c2)c1=O | active: 1.35 µM |
| CC(C)CNC(=O)[C@H]1N2C(=O)c3ccccc3C2SC1(C)C (stereo partly specified) | inactive |
